# Out of some 420,000 compounds screened, about 50,000 (12%) were called active. Inconclusive means that the source gave no clear call. Such entries were picked first, then a sample of the others. Calls follow the shape of the dose curve; as a rule, active = well fitted inhibition curve with a large enough effect; inconclusive = small, poorly fitted or top-dose-only effect; inactive = flat fitted curve, though single readings scatter. Potencies of inconclusive entries are left out as doubtful fits.
# Test: qHTS for Inhibitors of human tyrosyl-DNA phosphodiesterase 1 (TDP1): qHTS in cells in presence of CPT; also: nearly all actives have a fitted effect of over 55% in size
# Settings: chicken DT40 Tdp1-/-;hTDP1 cells + 20 nM CPT, ATP luminescence, 48 h; series mostly up to 46.2 µM
# In short: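 Cell growth measured by CellTiter-Glo luminescence after a minimum 48 h, 37 C compound exposure with 20 nM CPT in Tdp1-knockout DT40 cells stably expressing hTDP1, seeded 400/well; qHTS titration format.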
# Potency is read from the fitted curve at half-maximal effect; tags tell the direction and shape of the fitted curve.
row,Compound,Potency
1,CC(=O)c1c(C)[nH]c(C(=O)OCc2ccc([N+](=O)[O-])cc2)c1C,"inconclusive [inhibitor, partial curve]"
2,COc1cc(CNCCN(C)C)c(Br)cc1OCC(=O)NCc1ccccc1,inactive
3,COCCNC(=O)C1(C)CCCN(CCSc2ccccc2)C1 (centres undefined),"inconclusive [inhibitor, single point]"
4,CN1CC[C@@]2(CCCN(C(=O)c3cccc(F)c3)C2)C1,inactive
5,O=C1CCCC/C=C\C[C@H](CC(=O)N(CCO)Cc2ccccc2)C(=O)N2CCC[C@@H]2CO1,active: 16.4 µM
6,CCCN1CCN(CCNC(=O)Nc2cc(OC)cc(OC)c2)CC1,inactive
7,COc1ccc(Cl)cc1NS(=O)(=O)c1cccc2cccnc12,"inconclusive [inhibitor, single point]"
8,O=C(NOC(=O)c1ccccc1)c1ccccc1,"inconclusive [inhibitor, single point]"
9,O=C(c1ccncc1)N1CCC2(CC1)CN(c1ccncc1)C2,inactive
10,Cc1ccc(NC(=O)C(=O)NCC(c2ccc3c(c2)OCO3)N2CCOCC2)c(C)c1 (centres undefined),"inconclusive [inhibitor, single point]"
11,O=C(C(=S)N1CCOCC1)c1c[nH]c2ccccc12,inactive
12,Cc1ccc(OCCC(=O)N(Cc2ccccc2)c2c(N)n(Cc3ccccc3)c(=O)[nH]c2=O)cc1,"inconclusive [inhibitor, single point]"
13,CC(C)C(NC(=O)C12CC3CC(CC(C3)C1)C2)C(=O)N/N=C/C1=C(N2CCOCC2)C(=C\c2cccc([N+](=O)[O-])c2)/CC1 (centres undefined),"inconclusive [inhibitor, partial curve]"
14,CCOC(=O)C(C)Sc1nc(-c2cccs2)ccc1C#N (centres undefined),"inconclusive [inhibitor, single point]"
15,CN(C)c1nccc(Nc2ccccc2)c1C#N,"inconclusive [inhibitor, single point]"
16,CCOC(=O)C1CCN(C(=O)C2c3ccccc3C(=O)N(C)C2c2ccc(OC)cc2)CC1 (centres undefined),"inconclusive [inhibitor, full curve, poor fit]"
17,COc1ccc(-c2noc(N3CCCC(C(=O)Nc4cc(F)ccc4F)C3)n2)cc1 (centres undefined),"inconclusive [inhibitor, single point]"
18,COc1ccccc1-c1nnc2sc(COc3ccc(F)cc3)nn12,"inconclusive [inhibitor, single point]"
19,Cc1cccc(NC(=O)CSc2nc3ccc(NC(=O)c4cccs4)cc3s2)c1,active: 13 µM
